Results: the supplement of paper PMC8728848
The list shows a part of the results.

Legend:
Assay in all cases: glycan array binding signal (z-score within array); higher = stronger binding
Details in all cases: glycan notation: IUPAC condensed, linker removed
[1] = biological target: Fuc(a1-3)[Gal(b1-4)]Glc6S
Summary of the method: (§1)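 The binding signal is a Z-score computed within each array and averaged over linkers. Arrays of the same protein sequence at different concentrations or buffers were also averaged together. Data originate from 3228 arrays in the Consortium for Functional Glycomics database, kept only where the protein sequence was available.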

[2] = biological target: Fuc(a1-3)[Gal(b1-4)]GlcNAc
Summary of the method: as §1

[3] = biological target: Fuc(a1-3)[Gal(b1-4)]GlcNAc(b1-2)Man(a1-3)[Fuc(a1-3)[Gal(b1-4)]GlcNAc(b1-2)Man(a1-6)]Man(b1-4)GlcNAc(b1-4)GlcNAc
Summary of the method: as §1

[4] = biological target: Fuc(a1-3)[Gal(b1-4)]GlcNAc(b1-2)Man(a1-6)[Gal(b1-4)GlcNAc(b1-2)Man(a1-3)]Man(b1-4)GlcNAc(b1-4)GlcNAc
Summary of the method: as §1

[5] = biological target: Fuc(a1-3)[Gal(b1-4)]GlcNAc(b1-3)Gal(b1-3)[Fuc(a1-4)]GlcNAc
Summary of the method: as §1

[6] = biological target: Fuc(a1-3)[Gal(b1-4)]GlcNAc(b1-4)Gal(b1-4)[Fuc(a1-3)]GlcNAc
Summary of the method: as §1

[7] = biological target: Fuc(a1-3)[Gal(b1-4)]GlcNAc(b1-4)Gal(b1-4)[Fuc(a1-3)]GlcNAc(b1-4)Gal(b1-4)[Fuc(a1-3)]GlcNAc
Summary of the method: as §1

[8] = biological target: Fuc(a1-3)[Gal(b1-4)]GlcNAc6S
Summary of the method: as §1

[9] = biological target: Fuc(a1-3)[Gal3S(b1-4)]Glc6S
Summary of the method: as §1

[10] = biological target: Fuc(a1-3)[Gal3S(b1-4)]GlcNAc
Summary of the method: as §1

[11] = biological target: Fuc(a1-3)[Gal3S(b1-4)]GlcNAc6S
Summary of the method: as §1

[12] = biological target: Fuc(a1-3)[GalNAc(b1-4)]GlcNAc
Summary of the method: as §1

[13] = biological target: Fuc(a1-3)[Neu5Ac(a2-3)]Gal(b1-4)GlcNAc(b1-3)GalNAc
Summary of the method: as §1

Fuc(a1-4)GlcNAc = biological target: Fuc(a1-4)GlcNAc
Summary of the method: as §1

Fuc(b1-3)GlcNAc = biological target: Fuc(b1-3)GlcNAc
Summary of the method: as §1

Gal(a1-2)Gal = biological target: Gal(a1-2)Gal
Summary of the method: as §1

Gal(a1-3)Gal = biological target: Gal(a1-3)Gal
Summary of the method: as §1

Gal(a1-3)Gal(b1-3)GlcNAc = biological target: Gal(a1-3)Gal(b1-3)GlcNAc
Summary of the method: as §1

Gal(a1-3)Gal(b1-4)Glc = biological target: Gal(a1-3)Gal(b1-4)Glc
Summary of the method: as §1

Gal(a1-3)Gal(b1-4)GlcNAc = biological target: Gal(a1-3)Gal(b1-4)GlcNAc
Summary of the method: as §1

[14] = biological target: Gal(a1-3)Gal(b1-4)[Fuc(a1-3)]GlcNAc
Summary of the method: as §1

[15] = biological target: Gal(a1-3)Gal(b1-4)[Fuc(a1-3)]GlcNAc(b1-2)Man(a1-3)[Gal(a1-3)Gal(b1-4)[Fuc(a1-3)]GlcNAc(b1-2)Man(a1-6)]Man(b1-4)GlcNAc(b1-4)GlcNAc
Summary of the method: as §1

Gal(a1-3)GalNAc = biological target: Gal(a1-3)GalNAc
Summary of the method: as §1

[16] = biological target: Gal(a1-3)[Gal(a1-4)]Gal(b1-4)GlcNAc
Summary of the method: as §1

Gal(a1-4)Gal(b1-4)Glc = biological target: Gal(a1-4)Gal(b1-4)Glc
Summary of the method: as §1

Gal(a1-4)Gal(b1-4)GlcNAc = biological target: Gal(a1-4)Gal(b1-4)GlcNAc
Summary of the method: as §1

[17] = biological target: Gal(a1-4)Gal(b1-4)GlcNAc(b1-3)Gal(b1-4)Glc
Summary of the method: as §1

Gal(a1-4)GlcNAc = biological target: Gal(a1-4)GlcNAc
Summary of the method: as §1

Gal(a1-6)Glc = biological target: Gal(a1-6)Glc
Summary of the method: as §1

Gal(b1-2)Gal = biological target: Gal(b1-2)Gal
Summary of the method: as §1

Gal(b1-3)Gal = biological target: Gal(b1-3)Gal
Summary of the method: as §1

Gal(b1-3)Gal(b1-4)GlcNAc = biological target: Gal(b1-3)Gal(b1-4)GlcNAc
Summary of the method: as §1

[18] = biological target: Gal(b1-3)Gal(b1-4)GlcNAc(b1-2)Man(a1-3)[Gal(b1-3)Gal(b1-4)GlcNAc(b1-2)Man(a1-6)]Man(b1-4)GlcNAc(b1-4)GlcNAc
Summary of the method: as §1

Gal(b1-3)GalNAc = biological target: Gal(b1-3)GalNAc
Summary of the method: as §1

[19] = biological target: Gal(b1-3)GalNAc(a1-3)[Fuc(a1-2)]Gal(b1-4)Glc
Summary of the method: as §1

[20] = biological target: Gal(b1-3)GalNAc(a1-3)[Fuc(a1-2)]Gal(b1-4)GlcNAc
Summary of the method: as §1

[21] = biological target: Gal(b1-3)GalNAc(b1-3)Gal(a1-4)Gal(b1-4)Glc
Summary of the method: as §1

[22] = biological target: Gal(b1-3)GalNAc(b1-4)Gal(b1-4)Glc
Summary of the method: as §1

[23] = biological target: Gal(b1-3)GalNAc(b1-4)[Neu5Ac(a2-3)]Gal(b1-4)Glc
Summary of the method: as §1

Gal(b1-3)GlcNAc = biological target: Gal(b1-3)GlcNAc
Summary of the method: as §1

[24] = biological target: Gal(b1-3)GlcNAc(b1-2)Man(a1-3)[Gal(b1-3)GlcNAc(b1-2)Man(a1-6)]Man(b1-4)GlcNAc(b1-4)GlcNAc
Summary of the method: as §1

[25] = biological target: Gal(b1-3)GlcNAc(b1-2)Man(a1-3)[Gal(b1-3)GlcNAc(b1-2)Man(a1-6)]Man(b1-4)GlcNAc(b1-4)[Fuc(a1-6)]GlcNAc
Summary of the method: as §1

[26] = biological target: Gal(b1-3)GlcNAc(b1-3)Gal(b1-3)GlcNAc
Summary of the method: as §1

[27] = biological target: Gal(b1-3)GlcNAc(b1-3)Gal(b1-4)Glc
Summary of the method: as §1

[28] = biological target: Gal(b1-3)GlcNAc(b1-3)Gal(b1-4)GlcNAc
Summary of the method: as §1

B1: Spy0252 (Streptococcus pyogenes), Q9A1I9_STRP1 (protein)
chain: MNMKKLASLAMLGASVLGLAACGGKSQKEAGASKSDTAKTEITWWAFPVFTQEKAEDGVGTYEKKLIAAFEKANPEIKVKLETIDFTSGPEKITTAIEAGTAPDVLFDAPGRIIQYGKNGKLADLNDLFTEEFTKDVNNDKLIQASKAGDTAYMYPISSAPFYMALNKKMLKDAGVLDLVKEGWTTDDFEKVLKALKDKGYNPGSFFANGQGGDQGPRAFFANLYSSHITDDKVTKYTTDDANSIKAMTKISNWIKDGLMMNGSQYDGSADIQNFANGQTSFTILWAPAQPGIQAKLLEASKVDYLEIPFPSDDGKPELEYLVNGFAVFNNKDEQKVAASKTFIQFIADDKEWGPKNVVRTGAFPVRTSYGDLYKDKRMEKIAEWTKFYSPYYNTIDGFAEMRTLWFPMVQAVSNGDEKPEDALKAFTEKANKTIKKTQ
[1]
  glycan array binding signal (z-score): -0.273
[2]
  glycan array binding signal (z-score): -0.266
[3]
  glycan array binding signal (z-score): -0.261
[4]
  glycan array binding signal (z-score): -0.236
[5]
  glycan array binding signal (z-score): -0.258
[6]
  glycan array binding signal (z-score): -0.177
[7]
  glycan array binding signal (z-score): -0.228
[8]
  glycan array binding signal (z-score): -0.268
[9]
  glycan array binding signal (z-score): -0.176
[10]
  glycan array binding signal (z-score): -0.255
[11]
  glycan array binding signal (z-score): -0.242
[12]
  glycan array binding signal (z-score): -0.236
[13]
  glycan array binding signal (z-score): -0.11
Fuc(a1-4)GlcNAc
  glycan array binding signal (z-score): -0.266
Fuc(b1-3)GlcNAc
  glycan array binding signal (z-score): -0.263
Gal(a1-2)Gal
  glycan array binding signal (z-score): -0.183
Gal(a1-3)Gal
  glycan array binding signal (z-score): -0.278
Gal(a1-3)Gal(b1-3)GlcNAc
  glycan array binding signal (z-score): -0.267
Gal(a1-3)Gal(b1-4)Glc
  glycan array binding signal (z-score): 4.21
Gal(a1-3)Gal(b1-4)GlcNAc
  glycan array binding signal (z-score): -0.273
[14]
  glycan array binding signal (z-score): -0.266
[15]
  glycan array binding signal (z-score): -0.255
Gal(a1-3)GalNAc
  glycan array binding signal (z-score): -0.256
[16]
  glycan array binding signal (z-score): 0.178
Gal(a1-4)Gal(b1-4)Glc
  glycan array binding signal (z-score): -0.171
Gal(a1-4)Gal(b1-4)GlcNAc
  glycan array binding signal (z-score): -0.203
[17]
  glycan array binding signal (z-score): 1.86
Gal(a1-4)GlcNAc
  glycan array binding signal (z-score): -0.162
Gal(a1-6)Glc
  glycan array binding signal (z-score): -0.263
Gal(b1-2)Gal
  glycan array binding signal (z-score): -0.138
Gal(b1-3)Gal
  glycan array binding signal (z-score): -0.008
Gal(b1-3)Gal(b1-4)GlcNAc
  glycan array binding signal (z-score): 0.413
[18]
  glycan array binding signal (z-score): -0.136
Gal(b1-3)GalNAc
  glycan array binding signal (z-score): -0.232
[19]
  glycan array binding signal (z-score): -0.262
[20]
  glycan array binding signal (z-score): -0.187
[21]
  glycan array binding signal (z-score): 2.83
[22]
  glycan array binding signal (z-score): 0.638
[23]
  glycan array binding signal (z-score): -0.25
Gal(b1-3)GlcNAc
  glycan array binding signal (z-score): -0.267
[24]
  glycan array binding signal (z-score): 0.073
[25]
  glycan array binding signal (z-score): 0.005
[26]
  glycan array binding signal (z-score): -0.215
[27]
  glycan array binding signal (z-score): -0.256
[28]
  glycan array binding signal (z-score): -0.267
